This passage reports TGI and GI50 results from PubChem BioAssay (NCI).

Each structure is given as a SMILES string.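 Following 48 hours of exposure in 96-well plates, responses at five concentrations were used to interpolate endpoints linearly. At the GI50, growth is halved.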 For part of its entries the source gives two or more results. The list is limited to them. An entry can have further records. For some assays here: The tests behind the records often covered other concentration ranges, which the source does not state; a value can be the end of its range.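 At the TGI there is no net growth.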 For some assays here: Values that stand side by side repeat one measurement (runs, samples, wells, individuals or studies). Marks in square brackets tell the records apart. Letters hold for one entry only. Bounds are passed on as bounds.

Common to all, as to assay: NCI-60 cell line screen, 48 h
In test [1] the test system is U251 CNS.
The subject of test [2] is HOP-62 NSCLC.
The test system of test [3] is K-562 leukemia.
In test [4] the test system is MCF7 breast.
Test [5] deals with OVCAR-5 ovarian.
The test system of test [6] is SF-295 CNS.
The subject of test [7] is SK-MEL-28 melanoma.
Test [8] has as its system SR leukemia.
In test [9] the test system is BT-549 breast.
In test [10] the test system is LOX IMVI melanoma.
For test [11], the system named is UACC-257 melanoma.
The test system of test [12] is CAKI-1 renal.
Test [13] concerns CCRF-CEM leukemia.
Test [14] concerns HCT-116 colon.
Test [15] relates to HCT-15 colon.
Test [16] has as its system HOP-92 NSCLC.
The subject of test [17] is HT29 colon.
Test [18] deals with RPMI-8226 leukemia.
Test [19] deals with RXF 393 renal.
The test system of test [20] is A549 NSCLC.
Test [21] deals with SF-268 CNS.
In test [22] the test system is SNB-19 CNS.
Test [23] has as its system COLO 205 colon.
Test [24] concerns MDA-N.
The subject of test [25] is SF-539 CNS.

Turning to `COC12C(COC(=O)NCCO)C3=C(C(=O)C(C)=C(N)C3=O)N1CC1NC12` (stereo not given), the TGI in test [1] is 23.4 µM and > 264 µM.
For `CC[C@H](C)[C@H](NC(=O)[C@H]1CCCCN1C)C(=O)N(C)[C@H](C[C@@H](OC(C)=O)c1nc(C(=O)NC23CC(C(=O)OC)(C2)C3)cs1)C(C)C`, the TGI was 84 nM and > 32.5 µM in test [2]; 46.1 nM and > 32.5 µM in test [6]. For the same compound, the GI50 is 0.253 nM and 3.25 nM in test [3]; 0.267 nM and 3.25 nM in [4]; 31.5 nM and 531 nM in [5]; 35.6 nM and 5.87 µM in test [7]; 0.0649 nM and 3.25 nM in test [8].
For `CCCCCCCCCCCC[C@@H](O)[C@H]1CC[C@H]([C@H](O)CC[C@H](O)[C@@H]2CC[C@@H](CCCCCCCC3=C[C@H](C)OC3=O)O2)O1`, the TGI is 1.11 µM and > 50 µM in test [9]; 4.96 µM and > 50 µM in test [10]; 4.84 µM and > 50 µM in [11].
`COc1cc2nnc3c4cccnc4[nH]c3c2cc1OC`: the TGI is 4.51 µM and 430 nM in test [12]; > 50 µM and 149 nM in test [13]; 50 µM and 333 nM in test [14]; 50 µM and 3.88 µM in test [15]; 50 µM and 1.75 µM in test [16]; 50 µM and 3.75 µM in test [17]. Besides, the TGI in [18] was 50 µM and 986 nM; in [19] it was 50 µM and 3.19 µM; in test [8] it was 50 µM and 262 nM; in [1] it was 50 µM and 4.38 µM. Further, the GI50 in [13] is > 50 µM and 34.7 nM.
As for `O=[N+]([O-])c1cccc2nc3ccccc3c(NCCCCCNc3c4ccccc4nc4cccc([N+](=O)[O-])c34)c12`, the TGI in test [20] is 2.14 µM and 95.7 nM; in [13] it was 424 nM and 27.5 nM; in test [2], 343 nM and 24.2 nM; in test [10] it was 591 nM and 29 µM; in test [4], 184 nM and 13.8 nM; in [21] it was 506 nM and 37.3 nM. Besides, the TGI in test [22] is 1.74 µM and 12.9 nM; in test [1], 914 nM and 36.2 nM.
For `O=C1CC(c2cccc(Cl)c2)Nc2ccc(N3CCCC3)cc21` (stereo not given), the TGI in [23] is 657 nM and 17.2 µM; in [14] it was 3.24 µM and > 100 µM; in test [24] it was 32.1 nM and > 100 µM; in test [25], 89.7 nM and > 100 µM.
Take `CC(=O)O[C@H]1CC2C(C3CC[C@H](C(C)CCC(=O)O)[C@]31C)[C@H](OC(C)=O)C[C@@H]1CC3(CC[C@]21C)OOC1(CCC(C)CC1)OO3` (stereo not given in full): the TGI in test [10] is > 100 µM [sample A] and 4.68 µM [sample B].
